Ends that are not written are not given here. * marks the point of attachment. IAANS = 2-(4'-(iodoacetamido)anilino)naphthalene-6-sulfonic acid label, O=C(C*)Nc1ccc(Nc2ccc3cc(S(=O)(=O)O)ccc3c2)cc1
Target: T1, IAANS-labelled peptide σ32-Q132-Q144-C (E. coli)
T1 construct: residues Q132-Q144 of σ32, the E. coli heat shock transcription factor; cysteine added at the C-terminus of the peptide (the '-C' of its name); also called 2-(4'-(iodoacetamido)anilino)naphthalene-6-sulfonic acid labelled σ32-Q132-Q144-C; substrate
T1 peptide: QRKLFFNLRKTKQC(IAANS)
Assay: fluorescence dissociation kinetics (chase with unlabelled peptide); in the presence of ATP; 0.5 μM DnaK and 0.5 μM IAANS-labelled peptide pre-incubated at least 30 min, then mixed with 50-fold excess of unlabelled peptide; HKM buffer, 30 °C; stopped flow
Settings: both partners purified

B1: DnaK-F146A (natural protein)
chain: not shown
notes: DnaK, the Hsp70 of Escherichia coli, Phe146 replaced by alanine; source: E. coli ΔdnaK52 cells (BB1553), purified (Ni-IDA, Resource Q), nucleotides removed
- peptide dissociation rate with ATP relative to DnaKwt: 3 % of DnaKwt

B2: DnaK-Y145A (natural protein)
chain: not shown
notes: DnaK, the Hsp70 of Escherichia coli, Tyr145 replaced by alanine; source: E. coli ΔdnaK52 cells (BB1553), purified (Ni-IDA, Resource Q), nucleotides removed
- peptide dissociation rate with ATP relative to DnaKwt: 27 % of DnaKwt

Reference: article PMC4595643, “Pathways of allosteric regulation in Hsp70 chaperones” (Nature Communications, 2015)
